The record followed here is US8067379B2, “Sulfur compounds as inhibitors of hepatitis C virus NS3 serine protease” (Schering Corporation, priority 2004, dated 2011).

SMILES strings stand for the structures. Some results are limits rather than exact numbers.

Broadly, the Ki is the equilibrium dissociation constant of an inhibitor or competing ligand from its target.

In one experiment the target is Recombinant heterodimeric HCV NS3/NS4A protease (strain 1a) (Hepatitis C virus genotype 1a, UniProt P27958). In words: Spectrophotometric assay for HCV serine protease inhibitory activity (chromogenic ester substrates). The experiment is classed as biochemical. The note with it: Table 3, sulfide compounds; HCV serine protease; read-out: Ki* range.
Regarding `C=CCNC(=O)C(=O)C(CCC(F)(F)F)NC(=O)[C@@H]1[C@@H]2[C@H](CN1C(=O)[C@@H](NC(=O)NC1(CSc3ccccn3)CCCCC1)C(C)(C)C)C2(C)C` (stereo partly shown) [Compound 129], the Ki was above 0.25 µM. Take `C#CCCC(NC(=O)[C@@H]1[C@@H]2[C@H](CN1C(=O)[C@@H](NC(=O)NC1(CSc3ccccc3)CCCCC1)C(C)(C)C)C2(C)C)C(=O)C(N)=O` (stereo partly shown) [Compound 107]: the Ki is below 0.075 µM. On the same count and under the same terms, under `CC(C)(C)SCC1(NC(=O)N[C@H](C(=O)N2C[C@H]3[C@@H]([C@H]2C(=O)NC(CC2CC2)C(=O)C(N)=O)C3(C)C)C(C)(C)C)CCCCC1` (stereo partly shown) [Compound 118] stands below 0.075 µM. Still for that read-out and setting: for `C#CCCC(NC(=O)[C@@H]1[C@@H]2[C@H](CN1C(=O)[C@@H](NC(=O)NC1(CSCc3ccco3)CCCCC1)C(C)(C)C)C2(C)C)C(=O)C(=O)NCC=C` (stereo partly shown) [Compound 126] the value was below 0.075 µM.

The same experiment, now with this note: Table 3, sulfone compounds; HCV serine protease; read-out: Ki* range.
With `CCCCC(NC(=O)[C@@H]1[C@@H]2[C@H](CN1C(=O)[C@@H](NC(=O)NC1(CS(=O)(=O)C(C)(C)C)CCCCC1)C(C)(C)C)C2(C)C)C(=O)C(=O)NCCC` (stereo partly shown) [Compound 247], the Ki is below 0.075 µM. For the compound `CC(C)(C)[C@H](NC(=O)NC1(CS(=O)(=O)C(C)(C)C)CCCCC1)C(=O)N1C[C@H](OCc2ccccc2)C[C@H]1C(=O)NC(CC1CCC1)C(=O)C(N)=O` (stereo partly shown) [Compound 299], the Ki is below 0.075 µM.

The same experiment, now with this note: Table 3A; class symbols; read-out: Ki* Range.
For the compound `CNC(=O)C(=O)[C@H](CC1CC1)NC(=O)[C@@H]1[C@@H]2[C@H](CN1C(=O)[C@@H](NC(=O)NC1(CS(=O)(=O)C(C)(C)C)CCCCC1)C(C)(C)C)C2(C)C` [Compound 883-ch], the Ki was below 0.075 µM. Still for that read-out and setting: under `CC1([C@H](NC(=O)N[C@@]2(CS(=O)(=O)C(C)(C)C)C[C@H]3C[C@H]3C2)C(=O)N2C[C@H]3[C@@H]([C@H]2C(=O)NC(CC2CC2)C(=O)C(=O)NC2CC2)C3(C)C)CCCCC1` (stereo partly shown) [Compound 463] stands 0.075 to 0.25 µM; under `CCCC(NC(=O)[C@@H]1[C@@H]2[C@H](CN1C(=O)[C@@H](NC(=O)NC1(CS(=O)(=O)C3CCCC3)CCCCC1)C1(C)CCCCC1)C2(C)C)C(=O)C(=O)NC1CC1` (stereo partly shown) [Compound 546], below 0.075 µM. With `CCNC(=O)C(=O)[C@H](CCC1CC1)NC(=O)[C@@H]1[C@@H]2[C@H](CN1C(=O)[C@@H](NC(=O)NC1(CS(=O)(=O)C(C)(C)C)CCCCC1)C1(C)CCCCC1)C2(C)C` [Compound 883-bs], the Ki is below 0.075 µM. Same read-out and setting: under `C=CCNC(=O)C(=O)C(CC1CC1)NC(=O)[C@@H]1[C@@H]2[C@H](CN1C(=O)[C@@H](NC(=O)NC1(CS(=O)(=O)C3CCCCC3)CCCCC1)C1(C)CCCCC1)C2(C)C` (stereo partly shown) [Compound 557] stands below 0.075 µM; under `CCC[C@H](NC(=O)[C@@H]1[C@@H]2[C@H](CN1C(=O)[C@@H](NC(=O)NC1([C@@H]3CCCS3(=O)=O)CCCCC1)C1(C)CCCCC1)C2(C)C)C(=O)C(=O)NC1CC1` [Compound 881], below 0.075 µM. Take `C=CCNC(=O)C(=O)[C@H](CCC1CC1)NC(=O)[C@@H]1[C@@H]2[C@H](CN1C(=O)[C@@H](NC(=O)NC1([C@H]3CCCS3(=O)=O)CCCCC1)C1(C)CCCCC1)C2(C)C` [Compound 871]: the Ki is below 0.075 µM. Still for that read-out and setting: under `CCC[C@H](NC(=O)[C@@H]1[C@@H]2[C@H](CN1C(=O)[C@@H](NC(=O)NC1(C3CCCCS3(=O)=O)CCCCC1)C1(C)CCCCC1)C2(C)C)C(=O)C(=O)NC1CC1` (stereo partly shown) [Compound 793] stands below 0.075 µM. With `C=CCNC(=O)C(=O)[C@H](CCC)NC(=O)[C@@H]1[C@@H]2[C@H](CN1C(=O)[C@@H](NC(=O)NC1(CS(=O)(=O)C(C)(C)CO)CCCCC1)C(C)(C)C)C2(C)C` [Compound 768], the Ki was below 0.075 µM. Turning to `CC(C)(C)[C@H](NC(=O)NC1([C@@H]2CCCS2(=O)=O)CCCCC1)C(=O)N1C[C@H]2[C@@H]([C@H]1C(=O)N[C@@H](CCC1CC1)C(=O)C(=O)NCCF)C2(C)C` [Compound 883-eh], the Ki was below 0.075 µM. On the same count and under the same terms, under `CC1([C@H](NC(=O)NC2(CS(=O)(=O)C(C)(C)C)CCCCC2)C(=O)N2C[C@H]3[C@@H]([C@H]2C(=O)NC(CC2CC2)C(=O)C(=O)NC2CCC2)C3(C)C)CCCCC1` (stereo partly shown) [Compound 413] stands below 0.075 µM. The same measure, in the same setting: for `CCCC(NC(=O)[C@@H]1[C@H]2CC(C)(C)O[C@H]2CN1C(=O)[C@@H](NC(=O)NC1(CS(=O)(=O)C(C)(C)C)CCCCC1)C(C)(C)C)C(=O)C(=O)NC1CC1` (stereo partly shown) [Compound 548] the value was 0.075 to 0.25 µM. Same read-out and setting: under `C=CCNC(=O)C(=O)[C@H](CC1CC1)NC(=O)[C@@H]1[C@@H]2[C@H](CN1C(=O)[C@@H](NC(=O)NC1([C@@H]3CC(C)(C)CCS3(=O)=O)CCCCC1)C(C)(C)C)C2(C)C` [Compound 857] stands below 0.075 µM. `CC(C)(C)[C@H](NC(=O)NC1(C2CCCS2(=O)=O)CCCCC1)C(=O)N1C[C@H]2[C@@H]([C@H]1C(=O)NC(CC1CC1)C(=O)C(=O)NC1CC1)C2(C)C` (stereo partly shown) [Compound 620]: the Ki is below 0.075 µM. For `CCC[C@H](NC(=O)[C@@H]1[C@@H]2[C@H](CN1C(=O)[C@@H](NC(=O)NC1(C3CCCS3(=O)=O)CCCCC1)C(C)(C)C)C2(C)C)C(=O)C(=O)NC1CC1` (stereo partly shown) [Compound 688], the Ki is below 0.075 µM. The same measure, in the same setting: for `C=CCNC(=O)C(=O)[C@H](CC1CC1)NC(=O)[C@@H]1[C@@H]2[C@H](CN1C(=O)[C@@H](NC(=O)NC1(CS(=O)(=O)C(C)(C)CF)CCCCC1)C1(C)CCCCC1)C2(C)C` [Compound 853] the value was below 0.075 µM. The same measure, in the same setting: under `CCCNC(=O)C(=O)[C@H](CC1CC1)NC(=O)[C@@H]1[C@@H]2[C@H](CN1C(=O)[C@@H](NC(=O)NC1(C3OCCS3(=O)=O)CCCCC1)C1(C)CCCCC1)C2(C)C` (stereo partly shown) [Compound 883-cy] stands below 0.075 µM; under `CC1([C@H](NC(=O)NC2(CS(=O)(=O)C(C)(C)c3ccccc3)CCCCC2)C(=O)N2C[C@H]3[C@@H]([C@H]2C(=O)NC(CC2CC2)C(=O)C(=O)NC2CC2)C3(C)C)CCCCC1` (stereo partly shown) [Compound 517], 0.075 to 0.25 µM; under `CCCC(NC(=O)[C@@H]1[C@@H]2[C@H](CN1C(=O)[C@@H](NC(=O)NC1(CS(=O)(=O)C(C)(C)C)CCCCC1)C(C)(C)C)C2(Cl)Cl)C(=O)C(=O)NC1CC1` (stereo partly shown) [Compound 585], below 0.075 µM. Same read-out and setting: for `CCCC[C@H](NC(=O)[C@@H]1[C@@H]2[C@H](CN1C(=O)[C@@H](NC(=O)NC1(CS(=O)(=O)C3(C)CCOCC3)CCCCC1)C(C)(C)C)C2(C)C)C(=O)C(=O)NCCC` [Compound 883-br] the value was below 0.075 µM; for `CC(C)(C)[C@H](NC(=O)NC1(CS(=O)(=O)C(C)(C)C)CCCCC1)C(=O)N1C[C@H]2[C@@H]([C@H]1C(=O)NC(CCCC(F)F)C(=O)C(=O)NC1CC1)C2(C)C` (stereo partly shown) [Compound 490], below 0.075 µM. Turning to `C=C(F)CNC(=O)C(=O)[C@H](CCCC)NC(=O)[C@@H]1[C@@H]2[C@H](CN1C(=O)[C@@H](NC(=O)NC1([C@H]3CCCS3(=O)=O)CCCCC1)C(C)(C)C)C2(C)C` [Compound 883-bk], the Ki is below 0.075 µM.

`CCCC[C@H](NC(=O)[C@@H]1[C@@H]2[C@H](CN1C(=O)[C@@H](NC(=O)NC1([C@H]3OCC(C)(C)S3(=O)=O)CCCCC1)C(C)(C)C)C2(C)C)C(=O)C(=O)NCC` [Compound 883-ep]: the Ki is below 0.075 µM. Still for that read-out and setting: under `C=CCNC(=O)C(=O)[C@H](CCCC)NC(=O)[C@@H]1[C@@H]2[C@H](CN1C(=O)[C@@H](NC(=O)NC1([C@H]3CCS3(=O)=O)CCCCC1)C(C)(C)C)C2(C)C` [Compound 883-m] stands below 0.075 µM.

The experiment is the same for the next values; noted with them: Table 4; read-out: Ki* range.
In the case of `C=CCNC(=O)C(=O)C(CCC)NC(=O)[C@@H]1[C@@H]2[C@H](CN1C(=O)[C@@H](NC(=O)N[C@H](CS(=O)(=O)N(C)C(C)(C)C)C(C)(C)C)C(C)(C)C)C2(C)C` (stereo partly shown) [Compound 1005], the Ki is 0.075 to 0.25 µM.
